According to PMC12136788:
This is one part of the list.

B1: chrX:78656995:78658420:-|CDS|ENSG00000179300|control|control|control (ssRNA)
RNA: GGGAGUUCUACAGUCCGACGAUCCCUAUCUGAUCUCAUCACUCAGUGCAUCAGCCUGGAAGAGAAGCCUGAUCCCAAUCCAUUAGGGAAAAGUUCCUCUGCAGAGGGAGAUGGACCCGAGAGUCCACCAGCUGAAAACCAACCCAACAGAGGAUUGAGCAUCA
B2: chr4:56502255:56502306:+|3pUTR|ENSG00000174780|msi1_unk|total|mutant (ssRNA)
RNA: GGGAGUUCUACAGUCCGACGAUCAUUUCAGCUGGAGUCUGAAGAUACUUGUUUCUGUUCAAGUCCCACUUUAAAUUAUGUCUCCGGAGACUGAAAGUGGAAUCUUCUGAGCAUUCCUAAAUAUCUGCUCCGAAAUAUCAUGUGCAACAGAGGAUUGAGCAUCA
B3: chr16:70398910:70399011:-|5pUTR|ENSG00000157350|unk|FALSE|unique (ssRNA)
RNA: GGGAGUUCUACAGUCCGACGAUCCACUUGCAUGGAACCCAAGUCCCCUGAAGCCCCUGUGCUCUCUGUUGUGAUUGGAGUUCUAGGGCUUCCCCGCUGCCGGGAACGAGGGGCCGCCUCAUUGUCUGCUCAUGAACCACAAGGCAACAGAGGAUUGAGCAUCA
B4: chr15:100649042:100649144:+|3pUTR|ENSG00000183475|unk|total|mutant (ssRNA)
RNA: GGGAGUUCUACAGUCCGACGAUCUACCUCUGCUUUUCUUUUGCUGUGCUCUUGUUUUUAACUUAUUUUUUUUUUAACAACUGCCGUACACUACCCUGAGACACUGCAUCUCGAUUUCUAUCUCCCGUCCGAGUUGUACUUUUACAACAGAGGAUUGAGCAUCA
B5: chr10:74136666:74136778:-|CDS|ENSG00000185009|unk|total|mutant (ssRNA)
RNA: GGGAGUUCUACAGUCCGACGAUCUUCAGAGGCUGCAAUUAAGGAUAAUGUGGUCACCGUAUAUGAACUCUCCGAAGAAAUGUCCGACAAUGGAUUUCCACUGGCUACCGAAUCUAACAUUUUGAAAGAAUUGAUUAAACCACCCAACAGAGGAUUGAGCAUCA
B6: chr1:77728514:77728621:-|CDS|ENSG00000077254|unk|total|mutant (ssRNA)
RNA: GGGAGUUCUACAGUCCGACGAUCAGAUCCGCAAACCAUAACCACUGAGGAGACAAUGGAAGAAGACAAGAGCCAGUCGGAUGCCGAUUUUCAGUCUUGUGAAUCUUGCCGCAACAGUGACCGAGCAGAAAAUGAAAAUGGCUCCAACAGAGGAUUGAGCAUCA
B7: chr17:29498396:29498497:+|CDS|ENSG00000160551|msi1|total|mutant (ssRNA)
RNA: GGGAGUUCUACAGUCCGACGAUCCAGCAGCCAAAGCAGCCGUGUUAACAGUCUUCCAGAUGUCUCAGAUGACAAGAGUGAGCCCGACAUGAUGGAGGGAGACCACACAGUGAUGUCUAACAGUUCUGUUAUCCAUUUAAAACCCAACAGAGGAUUGAGCAUCA
B8: chr6:133987709:133987810:+|3pUTR|ENSG00000028839|unk|total|mutant (ssRNA)
RNA: GGGAGUUCUACAGUCCGACGAUCAAUAACAAACCGGAAUUUUUUUUCUUGCAGAUCCGAAAUAAAAACGUGUAUAUAAACUCCCGGGAACCAGACCCGAAGUUUACCGAUAAAGGAUAAUGUUUUAUGUUGCUAAUUUAAUAUCAACAGAGGAUUGAGCAUCA
B9: chrX:50586795:50596694:-|three_prime_utr|ENSG00000158352|control|control|control (ssRNA)
RNA: GGGAGUUCUACAGUCCGACGAUCAGCACUCUGCCACAGCAUCCCUGCCCAGCCAUGUGGGAAGUGCUUUCAAUCUUCUUUGUUAGCAGUUUCUCAGCAAGUAGAUAGCAAUUAGCAGUUUGUUCCAGCCCUCUACCCUGGAUGCAACAGAGGAUUGAGCAUCA
B10: chr19:13095865:13096029:+|3pUTR|ENSG00000008441|msi1|total|mutant (ssRNA)
RNA: GGGAGUUCUACAGUCCGACGAUCCCGCCCCCCACGUGGCCACUUUUCUCUGGAUUUCCGCUGUAAUGUCUUUACUCUUUAUUCCGGGGUGGGGCAUUCAUUGUUUGGGUCUUUUGCUGUUGGAAUGGGAACUCCUCCUCCAUUCAACAGAGGAUUGAGCAUCA
B11: chr8:124550783:124552991:-|three_prime_utr|ENSG00000170873|control|control|control (ssRNA)
RNA: GGGAGUUCUACAGUCCGACGAUCAUUAAUAAAACCUAAUUUGUCUUGAUCCAUUCCACUCUAUAAUAAAACAAAAGAUUUUGUAGGCAACUCGGAAUAUAGCUCUUUUGAAAGUACUCGACACCUUUAGAUAAGAAUUAAAACCAACAGAGGAUUGAGCAUCA
B12: chr10:73251842:73251943:-|CDS|ENSG00000182180|msi1|FALSE|unique (ssRNA)
RNA: GGGAGUUCUACAGUCCGACGAUCUCGGCCGUUCUACCGCAUUGUGGCUGCUCACAACAAGUGUCCCAGGGAUGGCCGUUUCGUAGAGCAGCUGGGCUCCUAUGAUCCAUUGCCCAACAGUCAUGGAGAAAAACUCGUUGCCCUCAACAGAGGAUUGAGCAUCA
B13: chr5:76733371:76733472:+|CDS|ENSG00000181104|msi1|FALSE|unique (ssRNA)
RNA: GGGAGUUCUACAGUCCGACGAUCGAUCCCAGCAGUUAUAACAGCAGUGGGCAGUUGAUGGCAAGUAAAAUGGAUACCUGCUCUAGUAACCUGAAUAACAGCAUAUACAAAAAGCUGUUAACUUAGGAAAAGGGACUGCUGGGACAACAGAGGAUUGAGCAUCA
B14: chr7:38725943:38726055:-|3pUTR|ENSG00000006715|unk|total|mutant (ssRNA)
RNA: GGGAGUUCUACAGUCCGACGAUCGAAAUUUUGGGGUCCACCGUGAAUAUUUUGUUAUUUAUUUGUUUGGCUCAUUCUUUAUACCGUAAUGGAAACAUAAGUCCCGGAGUCCGAAAUGAAUUUUUCCGACCUCCGUAAAACCAUCAACAGAGGAUUGAGCAUCA

Each binder was assayed against MSI1 full-length (mouse, UniProt Q61474 1-362) (assay: nsRBNS (natural sequence RNA bind-n-seq); RBNS binding buffer (assumed for nsRBNS): 25 mM Tris pH 7.5, 150 mM KCl, 3 mM MgCl2, 0.01% Triton X-100, 500 ug/ml BSA, 20 U/ml SUPERase-In, 4 C; UNK is unkempt and MSI1 is Musashi-1; names of the RNAs are library labels; protein concentration not given here; high values mean tight binding).
Sequence of UniProt Q61474 (Q61474 whole entry): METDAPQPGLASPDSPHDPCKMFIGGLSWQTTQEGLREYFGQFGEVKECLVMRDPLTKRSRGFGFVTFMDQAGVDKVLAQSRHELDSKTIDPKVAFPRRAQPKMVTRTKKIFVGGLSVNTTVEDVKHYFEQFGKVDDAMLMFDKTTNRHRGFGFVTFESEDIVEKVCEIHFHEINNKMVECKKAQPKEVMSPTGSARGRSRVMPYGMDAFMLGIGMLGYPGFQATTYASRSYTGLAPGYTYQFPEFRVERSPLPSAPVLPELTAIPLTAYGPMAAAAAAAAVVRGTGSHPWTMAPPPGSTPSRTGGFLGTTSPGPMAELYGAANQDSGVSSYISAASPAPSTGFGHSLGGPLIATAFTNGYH

| Binder | binding signal |
| --- | --- |
| B1 | 0.386 enrichment R |
| B2 | 0.304 enrichment R |
| B3 | 0.439 enrichment R |
| B4 | 1.1 enrichment R |
| B5 | 0.332 enrichment R |
| B6 | 0.307 enrichment R |
| B7 | 0.495 enrichment R |
| B8 | 0.788 enrichment R |
| B9 | 1.65 enrichment R |
| B10 | 0.559 enrichment R |
| B11 | 6.04 enrichment R |
| B12 | 0.318 enrichment R |
| B13 | 0.429 enrichment R |
| B14 | 0.372 enrichment R |
